From the supplement of paper PMC5919970
Where a name gives a salt, the structure may show the parent alone. Over roughly 2,000 compounds, “fractional viability relative to vehicle” has its median near 0.91; the lowest 2% begin near 0.045. The list shows a part of the results.

System: TYKNU
Assay: fractional viability relative to vehicle; TYKNU is a high-grade serous ovarian cancer line; higher = less growth inhibition
Details: 72 h
How it was run: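 Drug treatment lasted 72 h, with cells grown at 37 °C in 5% CO2 in RPMI 1640 supplemented with 10% FBS. Beforehand, TYKNU control cells or their lentiCRISPRv2 knockout derivatives had been seeded at 500 cells per well into drug-stamped 384-well plates carrying a ~2100-compound library at 2 or 10 μM, in duplicate. Viability came from Cell Titer Glo luminescence, with averaged duplicate treatment wells normalised to duplicate control wells in the same plate position.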

[1] = 2uM, genotype: DNM1L knockout (sgDNM1L #1)
[2] = 2uM, genotype: sgCTRLA1 (non-targeting control)
[3] = 10uM, genotype: DNM1L knockout (sgDNM1L #1)
[4] = 10uM, genotype: sgCTRLA1 (non-targeting control)

Structure (SMILES) | fractional viability [1] | fractional viability [2] | fractional viability [3] | fractional viability [4]
Cn1c(Nc2ccc(C(F)(F)F)cc2)nc2cc(Oc3ccnc(-c4ncc(C(F)(F)F)[nH]4)c3)ccc21 | 0.345 | 0.325 | 0.292 | 0.271
COC(=O)C1=C(C)NC(C)=C(C(=O)OC(C)C)C1c1cccc2nonc12 (configuration not stated) [Isradipine] | 0.992 | 1.11 | 0.775 | 0.961
CC(=O)OCC[N+](C)(C)C [Acetylcholine Chloride] | 0.908 | 0.998 | 0.907 | 1.05
CC1(C)CCC2=C(O1)c1ccccc1C(=O)C2=O [Beta-Lapachone] | 0.128 | 0.0912 | 0.0219 | 0.023
S=C(NCc1ccc2c(c1)OCO2)N1CCN(c2ncnc3c2oc2ccccc23)CC1 [Amuvatinib (MP-470)] | 0.884 | 0.774 | 0.554 | 0.314
OCCN1C[C@H](O)[C@@H](O)[C@H](O)[C@H]1CO [Miglitol] | 0.951 | 1.15 | 0.776 | 0.983
CC(C)C(=O)Nc1ccc([N+](=O)[O-])c(C(F)(F)F)c1 [Flutamide] | 0.954 | 1.15 | 0.769 | 0.968
Cn1cnc([N+](=O)[O-])c1Sc1ncnc2[nH]cnc12 [Azathioprine] | 1.07 | 0.812 | 1.12 | 0.784
CC(=O)Oc1cc2c(s1)CCN(C(C(=O)C1CC1)c1ccccc1F)C2 (configuration not stated) [Prasugrel] | 1.14 | 1.21 | 0.897 | 1.08
CC(C)CN(C[C@@H](O)[C@H](Cc1ccccc1)NC(=O)O[C@H]1CO[C@H]2OCC[C@H]21)S(=O)(=O)c1ccc(N)cc1 [Darunavir Ethanolate] | 1.05 | 1.13 | 0.94 | 1.04
COc1cc(/C=C/C(=O)CC(=O)/C=C/c2ccc(O)c(OC)c2)ccc1O [Curcumin] | 1.02 | 1.02 | 0.92 | 0.898
Cc1cc2c(F)c(Oc3ncnn4cc(OC[C@@H](C)O)c(C)c34)ccc2[nH]1 | 0.804 | 0.956 | 0.487 | 0.469
O=C(O)CSCC(=O)NC1CCSC1=O (configuration not stated) [Erdosteine] | 1.12 | 0.966 | 0.984 | 0.987
CN1CCN(C2CCN(C(=O)Nc3cc(Oc4ccc(NC(=O)C5(C(=O)Nc6ccc(F)cc6)CC5)c(F)c4)ccn3)CC2)CC1 [Golvatinib (E7050)] | 0.89 | 0.894 | 0.198 | 0.168
C[N+](C)(C)CCO.[Cl-] [Choline Chloride] | 0.782 | 1.05 | 0.777 | 0.905
O=c1[nH]cnc2[nH]ncc12 [Allopurinol Sodium] | 1.03 | 1.12 | 0.954 | 1.13
CCOC(=O)[C@H](CCc1ccccc1)N[C@@H](C)C(=O)N1Cc2cc(OC)c(OC)cc2C[C@H]1C(=O)O [Moexipril HCl] | 0.907 | 1.2 | 0.939 | 1.1
Cn1cc(-c2ccc3nnc(Sc4ccc5ncccc5c4)n3n2)cn1 | 1.1 | 1.07 | 1.09 | 1.12
Clc1ccc(Nc2nnc(Cc3ccncc3)c3ccccc23)cc1 [Vatalanib (PTK787) 2HCl] | 1.08 | 1.08 | 1.06 | 1.05

Structure (SMILES) | fractional viability [1] | fractional viability [2] | fractional viability [3] | fractional viability [4]
Cc1cc(O)c2c(c1)C(=O)c1cc(O)cc(O)c1C2=O [Emodin] | 1.11 | 1.13 | 0.844 | 0.99
O=C1NC(=O)/C(=C/c2cccc(C(F)(F)F)c2)S1 | 0.748 | 0.945 | 0.687 | 0.786
Nc1nc(O)c2ncn(CCC(CO)CO)c2n1 [Penciclovir] | 0.91 | 1.11 | 0.833 | 1.2
Fc1ccc([C@@H]2CCNC[C@H]2COc2ccc3c(c2)OCO3)cc1 [Paroxetine HCl] | 1.02 | 0.935 | 0.299 | 0.347
CN(C/C=C/C#CC(C)(C)C)Cc1cccc2ccccc12 [Terbinafine HCl] | 1.08 | 1.07 | 0.889 | 1
CN(C/C=C/C#CC(C)(C)C)Cc1cccc2ccccc12 [Terbinafine] | 1.1 | 1.16 | 0.828 | 0.997
O=c1[nH]cnc2c1ncn2[C@H]1CC[C@@H](CO)O1 [Didanosine] | 0.976 | 1.12 | 0.872 | 0.985
Nc1nc(Nc2ccc3c(c2)CCC(N2CCCC2)CC3)nn1-c1cc2c(nn1)-c1ccccc1CCC2 (configuration not stated) | 0.343 | 0.242 | 0.0232 | 0.0259
CCCC(=O)OCOC(=O)C1=C(C)NC(C)=C(C(=O)OC)C1c1cccc(Cl)c1Cl (configuration not stated) [Clevidipine Butyrate] | 0.856 | 1.02 | 0.882 | 0.982
NC(CO)C(=O)NNCc1ccc(O)c(O)c1O (configuration not stated) [Benserazide HCl] | 1.13 | 1.06 | 1.01 | 0.448
C[C@H]1COc2c(N3CCN(C)CC3)c(F)cc3c(=O)c(C(=O)O)cn1c23 [Levofloxacin] | 1.04 | 1.22 | 0.86 | 1.22
CCC(=O)Nc1cccc(Oc2nc(Nc3ccc(N4CCN(C)CC4)cc3OC)ncc2Cl)c1 | 0.867 | 0.981 | 0.303 | 0.347
C=CC(=O)Nc1cccc(Nc2nc(Nc3ccc(OCCOC)cc3)ncc2F)c1 | 0.626 | 0.721 | 0.273 | 0.297
N#Cc1c(NC(=O)c2cccc3ccccc23)sc2c1CCCC2 [JNK Inhibitor IX] | 0.125 | 0.11 | 0.127 | 0.0878
COC(=O)Nc1nc2cc([S+]([O-])c3ccccc3)ccc2[nH]1 (configuration not stated) [Oxfendazole] | 1.06 | 1.09 | 0.846 | 0.91
CCc1c(Cl)c(O)c(Cl)c(O)c1C(=O)O[C@H]1[C@H](O)[C@H](OC)[C@H](OC/C2=C\C=C\C[C@H](O)/C(C)=C/[C@H](CC)[C@@H](O[C@@H]3OC(C)(C)[C@@H](OC(=O)C(C)C)[C@H](O)[C@@H]3O)/C(C)=C/C(C)=C/C[C@@H]([C@@H](C)O)OC2=O)O[C@@H]1C [Fidaxomicin] | 0.741 | 0.893 | 0.494 | 0.0966
Nc1ccn([C@@H]2CS[C@H](CO)O2)c(=O)n1 [Lamivudine] | 1.02 | 1.02 | 0.884 | 0.91
COc1ccccc1OCC(O)COC(N)=O (configuration not stated) [Methocarbamol] | 1.02 | 1.16 | 0.9 | 1
O=C1NCCCc2c1oc1ccc(O)cc21 | 0.944 | 1.01 | 0.872 | 1.07
